# Experimental data as given in the supplement of paper PMC8728848.
# Some of the results follow.
# B1: Cohesin-marm-DC-ASGPR-CRD (protein)
# chain: LDITSHHHHHHDDLDAVRIKVDTVNAKPGDTVRIPVRFSGIPSKGIANCDFVYSYDPNVLEIIEIEPGDIIVDPNPDKSFDTAVYPDRKIIVFLFAEDSGTGAYAITKDGVFATIVAKVKEGAPNGLSVIKFVEVGGFANNDLVEQKTQFFDGGVNVGDTTEPATPTTPVTTPTTTDDLDAASCPINWVEHQGSCYWFSRSGKTWPEAERYCQLENTHLVVINSREEQNFVQAHLGSAYTWMGLSDPEGVWKWVDGTDYSSGFQNWKPGQPDDWQGHGLGGGEDCAHFHPDGRWNDDVCQRSYHWVCEAGLTQASQDSH
# Tests used:
# Experiment in all cases: glycan array binding signal (z-score within array); higher = stronger binding
# Conditions in all cases: glycan notation: IUPAC condensed, linker removed
# GlcNAc(b1-3)Man = molecular target: GlcNAc(b1-3)Man
# In short: (§1)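 The Consortium for Functional Glycomics database supplied 3228 glycan arrays, of which those lacking an available protein sequence were dropped. The binding signal, a within-array Z-score, was averaged across arrays of the same protein sequence and across linkers. Negative scores can be read as non-binding.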
# [1] = molecular target: GlcNAc(b1-3)[GlcNAc(b1-4)][GlcNAc(b1-6)]GlcNAc
# In short: as §1
# [2] = molecular target: GlcNAc(b1-3)[GlcNAc(b1-6)]Gal(b1-4)GlcNAc
# In short: as §1
# [3] = molecular target: GlcNAc(b1-3)[GlcNAc(b1-6)]GalNAc
# In short: as §1
# [4] = molecular target: GlcNAc(b1-4)Gal(b1-4)GlcNAc
# In short: as §1
# GlcNAc(b1-4)GlcNAc = molecular target: GlcNAc(b1-4)GlcNAc
# In short: as §1
# [5] = molecular target: GlcNAc(b1-4)GlcNAc(b1-4)GlcNAc
# In short: as §1
# [6] = molecular target: GlcNAc(b1-4)GlcNAc(b1-4)GlcNAc(b1-4)GlcNAc(b1-4)GlcNAc
# In short: as §1
# [7] = molecular target: GlcNAc(b1-4)GlcNAc(b1-4)GlcNAc(b1-4)GlcNAc(b1-4)GlcNAc(b1-4)GlcNAc
# In short: as §1
# [8] = molecular target: GlcNAc(b1-4)[GlcNAc(b1-6)]GalNAc
# In short: as §1
# [9] = molecular target: GlcNAc(b1-6)Gal(b1-4)GlcNAc
# In short: as §1
# GlcNAc(b1-6)GalNAc = molecular target: GlcNAc(b1-6)GalNAc
# In short: as §1
# [10] = molecular target: GlcNAc6S(b1-3)Gal(b1-4)GlcNAc
# In short: as §1
# Kdn(a2-3)Gal(b1-3)GalNAc = molecular target: Kdn(a2-3)Gal(b1-3)GalNAc
# In short: as §1
# Kdn(a2-3)Gal(b1-3)GlcNAc = molecular target: Kdn(a2-3)Gal(b1-3)GlcNAc
# In short: as §1
# Kdn(a2-3)Gal(b1-4)Glc = molecular target: Kdn(a2-3)Gal(b1-4)Glc
# In short: as §1
# Kdn(a2-3)Gal(b1-4)GlcNAc = molecular target: Kdn(a2-3)Gal(b1-4)GlcNAc
# In short: as §1
# [11] = molecular target: Kdn(a2-3)Gal(b1-4)[Fuc(a1-3)]GlcNAc
# In short: as §1
# Kdn(a2-6)Gal(b1-4)GlcNAc = molecular target: Kdn(a2-6)Gal(b1-4)GlcNAc
# In short: as §1
# [12] = molecular target: Man(a1-2)Man(a1-2)Man(a1-3)Man
# In short: as §1
# [13] = molecular target: Man(a1-2)Man(a1-2)Man(a1-6)[Man(a1-3)]Man
# In short: as §1
# Man(a1-2)Man(a1-3)Man = molecular target: Man(a1-2)Man(a1-3)Man
# In short: as §1
# [14] = molecular target: Man(a1-2)Man(a1-3)[Man(a1-2)Man(a1-6)]Man
# In short: as §1
# [15] = molecular target: Man(a1-2)Man(a1-3)[Man(a1-2)Man(a1-6)]Man(a1-6)[Man(a1-2)Man(a1-2)Man(a1-3)]Man
# In short: as §1
# [16] = molecular target: Man(a1-2)Man(a1-3)[Man(a1-2)Man(a1-6)]Man(a1-6)[Man(a1-2)Man(a1-2)Man(a1-3)]Man(b1-4)GlcNAc(b1-4)GlcNAc
# In short: as §1
# [17] = molecular target: Man(a1-2)Man(a1-3)[Man(a1-6)]Man(a1-6)[Man(a1-2)Man(a1-3)]Man(b1-4)GlcNAc(b1-4)GlcNAc
# In short: as §1
# [18] = molecular target: Man(a1-2)Man(a1-6)[Man(a1-3)]Man(a1-6)[Man(a1-2)Man(a1-2)Man(a1-3)]Man
# In short: as §1
# [19] = molecular target: Man(a1-2)Man(a1-6)[Man(a1-3)]Man(a1-6)[Man(a1-2)Man(a1-2)Man(a1-3)]Man(b1-4)GlcNAc(b1-4)GlcNAc
# In short: as §1
# Man(a1-3)[Man(a1-6)]Man = molecular target: Man(a1-3)[Man(a1-6)]Man
# In short: as §1
# [20] = molecular target: Man(a1-3)[Man(a1-6)]Man(a1-6)[Man(a1-2)Man(a1-3)]Man(b1-4)GlcNAc(b1-4)GlcNAc
# In short: as §1
# [21] = molecular target: Man(a1-3)[Man(a1-6)]Man(a1-6)[Man(a1-3)]Man
# In short: as §1
# [22] = molecular target: Man(a1-3)[Man(a1-6)]Man(a1-6)[Man(a1-3)]Man(b1-4)GlcNAc(b1-4)GlcNAc
# In short: as §1
# [23] = molecular target: Man(a1-3)[Man(a1-6)]Man(b1-4)GlcNAc(b1-4)GlcNAc
# In short: as §1
# [24] = molecular target: Man(a1-3)[Man(a1-6)]Man(b1-4)GlcNAc(b1-4)[Fuc(a1-6)]GlcNAc
# In short: as §1
# Man(a1-6)Man = molecular target: Man(a1-6)Man
# In short: as §1
# Man(b1-4)GlcNAc = molecular target: Man(b1-4)GlcNAc
# In short: as §1
# MurNAc(b1-4)GlcNAc = molecular target: MurNAc(b1-4)GlcNAc
# In short: as §1
# Neu5Ac(a2-3)Gal = molecular target: Neu5Ac(a2-3)Gal
# In short: as §1
binder,measurement,setting,value
B1,glycan array binding signal (z-score),GlcNAc(b1-3)Man,-0.434
same,glycan array binding signal (z-score),[1],-0.438
same,glycan array binding signal (z-score),[2],-0.443
same,glycan array binding signal (z-score),[3],-0.431
same,glycan array binding signal (z-score),[4],-0.439
same,glycan array binding signal (z-score),GlcNAc(b1-4)GlcNAc,-0.415
same,glycan array binding signal (z-score),[5],-0.446
same,glycan array binding signal (z-score),[6],-0.431
same,glycan array binding signal (z-score),[7],-0.451
same,glycan array binding signal (z-score),[8],-0.383
same,glycan array binding signal (z-score),[9],-0.441
same,glycan array binding signal (z-score),GlcNAc(b1-6)GalNAc,2.94
same,glycan array binding signal (z-score),[10],-0.392
same,glycan array binding signal (z-score),Kdn(a2-3)Gal(b1-3)GalNAc,-0.362
same,glycan array binding signal (z-score),Kdn(a2-3)Gal(b1-3)GlcNAc,-0.442
same,glycan array binding signal (z-score),Kdn(a2-3)Gal(b1-4)Glc,-0.436
same,glycan array binding signal (z-score),Kdn(a2-3)Gal(b1-4)GlcNAc,-0.439
same,glycan array binding signal (z-score),[11],-0.422
same,glycan array binding signal (z-score),Kdn(a2-6)Gal(b1-4)GlcNAc,-0.446
same,glycan array binding signal (z-score),[12],-0.43
same,glycan array binding signal (z-score),[13],-0.448
same,glycan array binding signal (z-score),Man(a1-2)Man(a1-3)Man,-0.438
same,glycan array binding signal (z-score),[14],-0.447
same,glycan array binding signal (z-score),[15],-0.444
same,glycan array binding signal (z-score),[16],-0.353
same,glycan array binding signal (z-score),[17],-0.44
same,glycan array binding signal (z-score),[18],-0.416
same,glycan array binding signal (z-score),[19],-0.449
same,glycan array binding signal (z-score),Man(a1-3)[Man(a1-6)]Man,-0.423
same,glycan array binding signal (z-score),[20],-0.392
same,glycan array binding signal (z-score),[21],-0.365
same,glycan array binding signal (z-score),[22],-0.452
same,glycan array binding signal (z-score),[23],-0.451
same,glycan array binding signal (z-score),[24],-0.445
same,glycan array binding signal (z-score),Man(a1-6)Man,0.554
same,glycan array binding signal (z-score),Man(b1-4)GlcNAc,-0.422
same,glycan array binding signal (z-score),MurNAc(b1-4)GlcNAc,-0.439
same,glycan array binding signal (z-score),Neu5Ac(a2-3)Gal,-0.408
